Data published in PubChem BioAssay AID504832 (National Center for Advancing Translational Sciences (NCATS), 2011).
Screen size: about 310,000 compounds; about 18,000 (5.8%) were called active. Inconclusive means that the source gave no clear call. Such entries were picked first, then a sample of the others. Calls come from the whole dose curve; as a rule, active = well fitted inhibition curve with a large enough effect; inconclusive = small, poorly fitted or top-dose-only effect, or another doubt; inactive = no such curve, though single readings can be large or run the other way. Potencies of inconclusive entries are left out as doubtful fits. Non-standard residues stand in square brackets, D forms with d. Residues, ends and D or L forms follow the SMILES beside them. pGlu = O=C1CC[CH](C(=O)O)N1

assay: Primary qHTS for delayed death inhibitors of the malarial parasite plastid, 48 hour incubation; settings: P. falciparum luciferase growth in erythrocytes; series mostly up to 28.7 µM
Method in brief: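 Luciferase-expressing P. falciparum in infected erythrocytes (2% hematocrit, 0.1% parasitemia final) in RPMI 1640/0.5% Albumax were exposed to compound for 48 hours at 37 C, 5% CO2; growth read as luminescence.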
Potency is the fitted concentration of half-maximal effect; tags give direction and shape of the fitted curve.

SMILES	Potency
COc1cc(CC(=O)OCC(=O)N2CC(C)CC(C)C2)cc(OC)c1OC (stereo not drawn)	inconclusive [inhibitor, single point]
O=C(c1ccc(S(=O)(=O)NCc2ccco2)cc1)N1CCN(Cc2ccccc2F)CC1	inconclusive [inhibitor, partial curve]
COc1cccc(OC)c1C(=O)OCC(=O)NC1CCCCCC1	inconclusive [inhibitor, single point]
COc1ccccc1C(=O)C1CCCN(C(=O)CCc2ccccn2)C1 (stereo not drawn)	inconclusive [inhibitor, full curve, poor fit]
Cc1ccc(N(Cc2cc3ccccc3[nH]c2=O)S(=O)(=O)c2ccccc2)cc1	inconclusive [inhibitor, single point]
COc1cc(N=C2C(=O)N3c4c(cccc42)C(C)=CC3(C)C)cc(OC)c1	inconclusive [inhibitor, single point]
O=C(NC(=S)NC1CCCCCC1)c1cncc(Br)c1	inactive
O=C(NC12CC3CC(CC(C3)C1)C2)N1CCC(O)(c2ccc3c(c2)OCO3)CC1	inconclusive [inhibitor, single point]
Cc1ccc(NC(=O)CSCC(=O)N2CCN(c3cccc(C(F)(F)F)c3)CC2)cc1	inconclusive [inhibitor, single point]
NC(=O)C1CCN(C(=O)c2ccc(-c3ccccc3Cl)o2)CC1	inactive
COC(=O)c1cn(NC(=O)Cc2ccc(Cl)c(Cl)c2)c(=O)c2ccccc12	inconclusive [inhibitor, single point]
Cc1cc(NC(=O)CCC(=O)N(CCc2ccccc2)C(C(=O)NC2CCCC2)c2ccco2)no1 (stereo not drawn)	inconclusive [inhibitor, single point]
CC1CC(C)CN(CCOc2ccc(Br)cc2)C1 (stereo not drawn)	inconclusive [inhibitor, partial curve]
CCOc1ccc(CCNC(=O)C2CCCN(S(=O)(=O)N3CC(C)CC(C)C3)C2)cc1OCC (stereo not drawn)	inconclusive [inhibitor, partial curve, poor fit]
COc1cc(C2CC(c3cccnc3)=NN2c2ccc(F)cc2)cc(OC)c1OC (stereo not drawn)	inconclusive [inhibitor, partial curve, poor fit]
COc1ccc(OC)c(Nc2nc(NCCC(C)C)nc(N)c2[N+](=O)[O-])c1	inconclusive [inhibitor, full curve]
C=CCc1cccc(CNc2cnc3ccccc3c2)c1O	inconclusive [inhibitor, partial curve]
O=C(NCCN1CCN(C(=O)C(c2ccccc2)c2ccccc2)CC1)C(=O)Nc1ccccc1	inconclusive [inhibitor, partial curve, poor fit]
Brc1ccc(-c2csc(N/N=C/c3ccco3)n2)cc1	inconclusive [inhibitor, single point]
COc1ccccc1CC1/C(=N/O)C2CCN1CC2 (stereo not drawn)	inactive
c1ccc(-c2csc3nnc(SCc4ccc5c(c4)OCCO5)n23)cc1	inactive
CCN1CCN(c2cc(C)c3cc(NC(=O)c4ccc5c(c4)OCO5)ccc3n2)CC1	active: 3.29 µM

SMILES	Potency
CCNC(=O)C(CC(C)C)NC(=O)C(CO)NC(=O)C1CCC(=O)N1 (stereo not drawn) ([pGlu]-Ser-Leu-NHEt; configuration not given here)	inconclusive [inhibitor, single point]
CCCCCn1c(SCC(=O)CC(=O)OCC)nc2cc(C(=O)N3CCC(C(N)=O)CC3)ccc2c1=O	inconclusive [inhibitor, single point]
CCC(CC)c1nnc(NC(=O)COc2ccc3c(c2)OCO3)s1	inactive
CN(C)C(CNC(=O)C1CCN(S(=O)(=O)c2ccccc2C(F)(F)F)CC1)Cc1ccccc1 (stereo not drawn)	inconclusive [inhibitor, single point]
Cc1ccc(C)c(C(=O)c2c(C)nc3sccn23)c1	inconclusive [inhibitor, single point]
CC(C)C(OC(=O)c1ccc(Cl)nc1)C(=O)NC1CCCCC1 (stereo not drawn)	inactive
COc1cc(OC)c2c(-c3ccccc3)cc(=O)oc2c1C(CCN1CCCC(C)C1)c1ccc2c(c1)OCO2 (stereo not drawn)	active: 11.7 µM
O=C(/C=C/c1cccc([N+](=O)[O-])c1)NCCSCc1ccc(Cl)cc1Cl	inactive
Nc1c2c(nc3ccccc13)CCC2	inconclusive [inhibitor, single point]
Cn1c(=O)c2c(nc(CN3CCC(C(N)=O)CC3)n2Cc2c(F)cccc2Cl)n(C)c1=O	inconclusive [inhibitor, single point]
CC1CCN(C(=O)CCCC(=O)N2CCC(C)CC2)CC1	inactive
O=C(Cc1ccc([N+](=O)[O-])cc1)N1N=C(c2ccncc2)CC1(O)C(F)(F)F (stereo not drawn)	inactive
Cc1cc(C)c2nc(C)cc(Nc3ccc(C(=O)N4CCOCC4)cc3)c2c1	inconclusive [inhibitor, single point]
COc1cccc(CN2CCNC(=O)C2CC(=O)NCc2cn3ccccc3n2)c1OC (stereo not drawn)	inactive
COc1ccc(CN2CC(=O)N(c3ccc(C)cc3C)C2=S)cc1OC	inconclusive [inhibitor, partial curve]
Cc1[nH]c2ccccc2c1CCN(Cc1cccs1)C(=S)NC(C)(C)C	inactive
O=C(O)Cc1ccc(C(=O)c2cccs2)s1	inactive
CCOc1ccc(C(=O)N(CN2CCCC2=O)c2ccccc2)cc1	inconclusive [inhibitor, single point]
Cc1ccc(NC(=O)CCCSc2ccccc2)cc1S(=O)(=O)N1CCOCC1	inconclusive [inhibitor, partial curve, poor fit]
Cc1ccc2c(c1)N(CC(=O)NCCc1ccc(Cl)cc1)C(=O)c1cccnc1O2	inactive
N=C1C(=O)OCC1c1cc(Cl)ccc1NC(=O)Nc1ccccc1 (stereo not drawn)	inconclusive [inhibitor, single point]
